Test results taken from the supplement of paper PMC3334620.
The full ranking holds about 33,000 sequences; the median of “E-score (-0.5 to 0.5)” is about -0.04, and the highest 2% start at about 0.36. The list shows a part of the results.

These sequences were tested against T1, Hmlalpha2 (UniProt P0CY09) (assay: PBM E-score (8-mer binding enrichment) (E-score (-0.5 to 0.5)); higher = stronger / more preferred TF binding; most listed sequences are background and not binding sites). Details: protein concentration: 200 nM; construct: GST-full length.
T1 sequence: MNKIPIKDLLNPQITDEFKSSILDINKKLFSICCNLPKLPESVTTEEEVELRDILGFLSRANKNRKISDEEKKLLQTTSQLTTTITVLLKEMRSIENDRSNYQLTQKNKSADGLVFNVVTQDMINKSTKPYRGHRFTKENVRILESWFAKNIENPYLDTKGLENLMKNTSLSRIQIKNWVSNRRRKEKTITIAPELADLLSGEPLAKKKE
Summary of the method: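 Yeast transcription factors, full-length or as DNA-binding domains, were expressed with a GST tag using PURExpress in vitro transcription/translation. At about 100-200 nM they were applied to universal all-10-mer Agilent arrays, double-stranded by primer extension on fresh or once-stripped slides. Fluorescent anti-GST detected bound protein, and masliner normalised the scans. E-scores for ungapped eight-base words, pooled with reverse complements, came from the Universal PBM Analysis Suite.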

Row | Sequence | PBM E-score
1 | TAAGTACA | 0.357
2 | CATTTTCA | 0.102
3 | ACACTCCC | -0.153
4 | GGTCCGTA | -0.192
5 | CAGGAATA | -0.0371
6 | CAGACTAC | 0.0523
7 | CTTAATTA | 0.163
8 | ATAGACTC | -0.183
9 | CAACCTTA | 0.101
10 | GAGTAGCA | -0.0964
11 | CAAGCCAA | 0.12
12 | TAGTCCAA | -0.0113
13 | ACACAGCG | 0.424
14 | AGGCCTGG | -0.127
15 | CGTTCCAC | -0.0969
16 | TCGTTCCA | -0.0169
17 | ATGTTTGC | 0.166
18 | ATTAAAGA | 0.162
19 | ACATCGTA | 0.174
20 | AGTACTGG | -0.163
21 | ACATACGA | 0.305
22 | TCCGTGCA | 0.0644
23 | GTGATGGA | -0.0828
24 | CGGCCTAG | -0.322
25 | CTAAAACC | 0.0222

Row | Sequence | PBM E-score
26 | ACGTACGT | 0.257
27 | ACTACTCA | 0.144
28 | ACCGAGCG | -0.0607
29 | CGCGTCGA | 0.191
30 | ACAGCACG | 0.0953
31 | AAAGGCAC | -0.0122
32 | AGTACAAG | 0.267
33 | AACACCAA | 0.27
34 | ATCATTTC | 0.0324
35 | ATACAACG | 0.185
36 | ACGAAACC | 0.107
37 | CAGGTCGA | 0.0589
38 | ACTTCTCG | -0.039
39 | AACTCGTC | 0.0855
40 | AAGTTGAG | -0.0333
41 | GGATTCGA | -0.0532
42 | AAGACTGT | -0.0384
43 | CCATTTAA | 0.078
44 | AGAAAAAA | -0.0182
45 | ATCCTTGG | -0.0413
46 | CACTCAGC | -0.236
47 | GCACCGAA | -0.0611
48 | AATTCGAG | -0.12
49 | AGGGGCAA | -0.27
50 | AGTGTTGA | 0.238

Row | Sequence | PBM E-score
51 | AAGTGATG | 0.0279
52 | CAGGGTTC | -0.185
53 | CATTGGGG | -0.143
54 | AAAGCGAA | -0.132
55 | ATCCATTC | -0.106
56 | AGTCTAGG | -0.15
57 | GGTATTAC | 0.257
58 | GGGACCGA | -0.078
59 | CGTACTGC | -0.0317
60 | AATACCCA | -0.0463
61 | AAACAAGG | 0.152
62 | TATTTAAA | 0.207
63 | GTAAGACA | 0.202
64 | AATTGCAC | 0.112
65 | AGTTCCAA | 0.0608
66 | GCAACGGA | -0.00487
67 | GTTTGAGA | 0.0411
68 | TAAGCAAA | 0.23
69 | CAGTACCG | -0.142
70 | ATAGAAGC | 0.0922
71 | CGTAGAAC | 0.181
72 | AACTCACC | -0.157
73 | ACAATCTC | 0.00032
74 | GAAAAATC | -0.0357
75 | CTGTCTAC | 0.0394

Row | Sequence | PBM E-score
76 | GACGTTTA | 0.177
77 | AGGATGTA | 0.322
78 | ACTGGCCG | -0.29
79 | GTCCTGGA | -0.18
80 | ACCTGTAT | 0.122
81 | AAAATCGG | -0.183
82 | GACGATGA | -0.0124
83 | CCGCGTTC | 0.106
84 | AGCGGTAG | -0.168
85 | CAGGGGGC | -0.225
86 | GCCCGCGA | -0.214
87 | CTTCTCCA | -0.351
88 | AGGGTCCG | -0.352
89 | ACAGGTGA | -0.0115
90 | AGTTCCCA | -0.0155
91 | CATATCGG | -0.112
92 | TGTGTCAA | 0.359
93 | CAGGACGC | -0.0259
94 | CAAATATA | -0.0151
95 | CGCGATGC | -0.121
96 | CTATGCAG | 0.0895
97 | AAAATTGT | 0.126
98 | AAGAGGAT | -0.0956
99 | ACAAGATC | 0.254
100 | TACTGGCA | -0.199

Row | Sequence | PBM E-score
101 | GAGGGCAA | -0.235
102 | TACTCGGA | 0.0815
103 | CACCTAGA | -0.19
104 | AACCTACA | 0.252
105 | AGGAACAC | 0.134
106 | AGTCATTC | -0.124
107 | ATGCGACG | -0.0756
108 | CTTACGAA | 0.108
109 | AGGTAGTA | 0.0867
110 | CAGCCCGA | -0.28
111 | ACGCAGCG | 0.132
112 | CGATGGAA | -0.138
113 | AACACTGG | 0.0539
114 | ACTCTTCC | -0.111
115 | ATTCATCA | -0.0286
116 | ACAGCCAG | 0.0764
117 | GAGTAGAA | 0.147
118 | ATAAGAGC | -0.0531
119 | GAAGACCA | -0.262
120 | CGGAAGGC | -0.281
121 | ACGCGGCC | 0.14
122 | GCGCACCA | -0.0433
123 | CCTGCTAA | -0.186
124 | AGCCGTAA | 0.11
125 | TCTAAACA | 0.228

Row | Sequence | PBM E-score
126 | GTATGTCA | 0.352
127 | GAGCAGCC | -0.0273
128 | AGGCCGTA | 0.0986
129 | CGCATGCA | 0.145
130 | AGCGGTGA | -0.218
131 | AGTAATAA | 0.257
132 | ACTAAGAG | -0.043
133 | GATTTCGA | -0.165
134 | CAGAACAG | -0.0998
135 | AGAAAGAC | -0.222
136 | GAAATGCC | -0.23
137 | CAGTACAC | 0.315
138 | CATAAGTC | 0.00763
139 | CTACATCC | 0.186
140 | AATAGTGC | -0.0407
141 | GGACGTCC | -0.113
142 | CCCCAACC | -0.00111
143 | CCCGGGAG | -0.273
144 | GTGTCAGA | 0.134
145 | ACTGCTCT | -0.114
146 | GTACTGCA | 0.0337
147 | GACCAATC | -0.0482
148 | TCCCTGCA | -0.119
149 | GACGTGCC | -0.157
150 | ATGGCCTA | -0.136

Row | Sequence | PBM E-score
151 | AGGGGGTC | -0.268
152 | GTTGAGAA | 0.0596
153 | ATTAACGG | -0.00314
154 | AGCATCGA | -0.0691
155 | AACATCTT | -0.0095
156 | TGTGCGAA | -0.0881
157 | ATGCAAGA | 0.0433
158 | ACCAGGCG | -0.205
159 | GAAGTCTA | -0.303
160 | AGGATAAT | 0.0118
161 | GCAATGAC | -0.0935
162 | CGGTAGTC | -0.242
163 | TCCCACAA | -0.152
164 | CCATTAAG | -0.0773
165 | AAAACATT | 0.242
166 | AGAAATAT | 0.203
167 | CGGAGTAA | 0.101
168 | GACGTGGC | -0.0942
169 | CGTCGAGA | 0.0934
170 | AATAACTA | 0.194
171 | TAATAAGA | 0.145
172 | CTTATTCA | -0.108
